Data as given in paper PMC4906230.
Results are given in words; binding and its absence hold for the method and conditions named. In cells and extracts the contact can be indirect. Some binding calls cover weakened binding; strength is not graded here. Where a sequence is shown, tags or fusion partners need not be part of it.

By UniProt entry, the sequences of proteins in these tests, tags left out.
UniProt Q14258: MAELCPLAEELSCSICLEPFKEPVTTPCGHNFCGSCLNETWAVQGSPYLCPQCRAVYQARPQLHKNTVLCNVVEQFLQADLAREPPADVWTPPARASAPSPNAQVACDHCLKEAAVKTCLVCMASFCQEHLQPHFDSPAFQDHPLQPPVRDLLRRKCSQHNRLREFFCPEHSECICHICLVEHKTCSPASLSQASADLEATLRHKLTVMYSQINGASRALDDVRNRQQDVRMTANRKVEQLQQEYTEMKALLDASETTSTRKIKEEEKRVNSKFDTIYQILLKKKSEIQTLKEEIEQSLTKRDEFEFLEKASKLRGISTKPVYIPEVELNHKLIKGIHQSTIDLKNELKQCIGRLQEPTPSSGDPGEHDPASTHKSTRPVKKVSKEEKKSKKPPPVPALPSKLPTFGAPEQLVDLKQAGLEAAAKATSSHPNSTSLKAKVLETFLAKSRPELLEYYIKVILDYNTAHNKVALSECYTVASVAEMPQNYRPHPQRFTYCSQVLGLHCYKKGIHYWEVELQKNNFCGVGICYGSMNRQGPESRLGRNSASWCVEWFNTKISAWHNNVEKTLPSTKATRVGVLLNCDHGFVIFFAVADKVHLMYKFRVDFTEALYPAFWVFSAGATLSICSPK

What was measured:
Test in all cases: co-IP; HEK293 cells transfected with epitope-tagged expression plasmids, lysed 24 h later; lysates immunoprecipitated with anti-Myc or anti-Flag beads and immunoblotted; in Fig. 7f,g with SDC4 overexpressed or knocked down by siRNA
Flag-tagged A20 = target: T1, Flag-tagged A20 (UniProt P21580)
T1 sequence: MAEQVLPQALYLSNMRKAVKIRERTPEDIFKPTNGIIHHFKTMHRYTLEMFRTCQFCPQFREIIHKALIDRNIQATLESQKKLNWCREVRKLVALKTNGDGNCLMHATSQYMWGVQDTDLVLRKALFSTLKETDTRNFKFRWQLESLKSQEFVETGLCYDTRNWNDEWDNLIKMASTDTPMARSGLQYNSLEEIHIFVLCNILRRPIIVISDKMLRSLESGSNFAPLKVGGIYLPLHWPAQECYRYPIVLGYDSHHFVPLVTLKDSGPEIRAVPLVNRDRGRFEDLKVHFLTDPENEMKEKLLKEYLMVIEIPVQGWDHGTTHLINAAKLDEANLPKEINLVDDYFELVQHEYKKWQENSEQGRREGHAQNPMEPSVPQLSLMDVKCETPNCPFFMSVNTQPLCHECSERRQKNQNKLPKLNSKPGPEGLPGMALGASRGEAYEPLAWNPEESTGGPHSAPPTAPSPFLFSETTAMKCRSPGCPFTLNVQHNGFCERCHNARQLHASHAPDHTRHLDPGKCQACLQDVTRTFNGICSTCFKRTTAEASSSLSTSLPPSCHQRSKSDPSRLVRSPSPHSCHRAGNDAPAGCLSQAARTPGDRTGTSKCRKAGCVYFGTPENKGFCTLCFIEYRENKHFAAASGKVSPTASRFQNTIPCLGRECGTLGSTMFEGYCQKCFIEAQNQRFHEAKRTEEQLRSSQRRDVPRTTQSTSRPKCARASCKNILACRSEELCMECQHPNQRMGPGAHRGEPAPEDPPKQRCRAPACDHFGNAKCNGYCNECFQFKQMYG

Flag-tagged CYLD = target: T2, Flag-tagged CYLD (UniProt Q9NQC7)
T2 sequence: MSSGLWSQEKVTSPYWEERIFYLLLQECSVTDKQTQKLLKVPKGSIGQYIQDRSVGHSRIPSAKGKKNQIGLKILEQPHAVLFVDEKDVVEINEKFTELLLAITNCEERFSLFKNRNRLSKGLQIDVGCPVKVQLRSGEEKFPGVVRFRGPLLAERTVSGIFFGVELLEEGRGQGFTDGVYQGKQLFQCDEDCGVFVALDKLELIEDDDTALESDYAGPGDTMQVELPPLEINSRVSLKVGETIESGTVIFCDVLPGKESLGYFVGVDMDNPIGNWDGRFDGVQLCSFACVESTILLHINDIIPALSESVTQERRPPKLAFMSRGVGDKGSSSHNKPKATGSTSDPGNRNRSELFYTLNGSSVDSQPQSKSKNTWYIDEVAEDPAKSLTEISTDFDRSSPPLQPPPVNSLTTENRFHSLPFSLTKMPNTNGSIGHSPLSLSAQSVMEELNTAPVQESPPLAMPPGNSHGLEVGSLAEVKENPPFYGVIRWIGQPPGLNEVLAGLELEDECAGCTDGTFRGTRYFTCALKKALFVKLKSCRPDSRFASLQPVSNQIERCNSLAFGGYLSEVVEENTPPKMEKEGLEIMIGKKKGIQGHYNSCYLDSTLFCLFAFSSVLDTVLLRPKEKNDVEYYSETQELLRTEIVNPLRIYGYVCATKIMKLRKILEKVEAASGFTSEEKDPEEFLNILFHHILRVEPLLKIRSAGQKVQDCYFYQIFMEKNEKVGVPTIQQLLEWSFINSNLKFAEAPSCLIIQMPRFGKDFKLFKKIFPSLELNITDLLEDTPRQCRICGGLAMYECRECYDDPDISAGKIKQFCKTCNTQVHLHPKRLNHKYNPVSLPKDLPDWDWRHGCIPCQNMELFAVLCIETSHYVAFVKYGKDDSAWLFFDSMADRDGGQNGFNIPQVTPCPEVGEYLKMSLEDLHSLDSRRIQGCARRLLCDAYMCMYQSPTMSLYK

Flag-tagged TRIM25 = Flag-tagged TRIM25 (UniProt Q14258)
[1] = target: T3, Flag-tagged full-length RIG-I (human) (UniProt O95786)
T3 sequence: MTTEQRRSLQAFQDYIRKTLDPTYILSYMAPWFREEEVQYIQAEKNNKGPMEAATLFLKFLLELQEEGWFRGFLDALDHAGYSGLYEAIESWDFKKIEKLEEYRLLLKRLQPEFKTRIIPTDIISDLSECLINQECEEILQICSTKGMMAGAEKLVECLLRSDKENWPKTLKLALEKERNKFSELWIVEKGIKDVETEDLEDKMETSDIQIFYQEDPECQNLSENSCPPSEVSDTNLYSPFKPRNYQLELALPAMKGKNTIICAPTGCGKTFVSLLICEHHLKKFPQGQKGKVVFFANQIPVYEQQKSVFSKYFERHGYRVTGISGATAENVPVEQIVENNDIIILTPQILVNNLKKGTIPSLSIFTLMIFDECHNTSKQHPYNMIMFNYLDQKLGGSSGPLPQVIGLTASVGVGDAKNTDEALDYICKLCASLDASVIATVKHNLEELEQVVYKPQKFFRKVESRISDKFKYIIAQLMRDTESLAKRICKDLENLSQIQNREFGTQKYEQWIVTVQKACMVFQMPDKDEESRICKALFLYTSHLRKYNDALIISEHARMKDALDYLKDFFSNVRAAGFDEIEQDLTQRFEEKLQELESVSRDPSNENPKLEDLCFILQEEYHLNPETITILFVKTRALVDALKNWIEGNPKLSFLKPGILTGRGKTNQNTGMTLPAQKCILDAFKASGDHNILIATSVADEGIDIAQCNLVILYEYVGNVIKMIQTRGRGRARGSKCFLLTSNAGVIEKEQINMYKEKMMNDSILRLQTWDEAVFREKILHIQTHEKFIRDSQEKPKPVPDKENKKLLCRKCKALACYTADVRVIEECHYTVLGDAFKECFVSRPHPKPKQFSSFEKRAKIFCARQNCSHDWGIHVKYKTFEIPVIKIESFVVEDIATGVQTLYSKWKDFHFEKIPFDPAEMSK

binding (Flag-tagged A20): no binding
binding (Flag-tagged CYLD): binds
binding (Flag-tagged TRIM25): no binding
binding [1]: binds
B1: Myc-tagged SDC4 (protein, UniProt P31431 19-198)
chain: ESIRETEVIDPQDLLEGRYFSGALPDDEDVVGPGQESDDFELSGSGDLDDLEDSMIGPEVVHPLVPLDNHIPERAGSGSQVPTEPKKLEENEVIPKRISPVEESEDVSNKVSMSSTVQGSNIFERTEVLAALIVGGIVGILFAVFLILLLMYRMKKKDEGSYDLGKKPIYKKAPTNEFYA
